Results published in PubChem BioAssay AID1768 (National Center for Advancing Translational Sciences (NCATS), 2009).
Where “and” joins values, the source holds several entries; their conditions need not be identical. Identical values can stand only once. Hit rate of the full screen: of about 270,000 compounds, about 620 (0.23%) were called active. Inconclusive means that the source gave no clear call. Such entries were picked first, then a sample of the others. The call rests on the fitted dose curve; in most records, active means well fitted inhibition curve with a large enough effect in the polarisation, with a control signal flat (not every such curve was filed as active); inconclusive means small, poorly fitted or top-dose-only effect, or effect the other way, or a change in a side signal; inactive means no such curve, though single readings can be large or run the other way; the % refers to the polarisation. Where the call is inconclusive, the potency comes from a doubtful curve fit. A note “side channel” means that the fit belongs to a control or component signal, not to the main read-out. Where a structure was tested more than once in an assay, its records may differ in their call.

Target: Menin (Homo sapiens) (UniProt O00255)
Chain of UniProt O00255 (O00255 whole entry, looked up): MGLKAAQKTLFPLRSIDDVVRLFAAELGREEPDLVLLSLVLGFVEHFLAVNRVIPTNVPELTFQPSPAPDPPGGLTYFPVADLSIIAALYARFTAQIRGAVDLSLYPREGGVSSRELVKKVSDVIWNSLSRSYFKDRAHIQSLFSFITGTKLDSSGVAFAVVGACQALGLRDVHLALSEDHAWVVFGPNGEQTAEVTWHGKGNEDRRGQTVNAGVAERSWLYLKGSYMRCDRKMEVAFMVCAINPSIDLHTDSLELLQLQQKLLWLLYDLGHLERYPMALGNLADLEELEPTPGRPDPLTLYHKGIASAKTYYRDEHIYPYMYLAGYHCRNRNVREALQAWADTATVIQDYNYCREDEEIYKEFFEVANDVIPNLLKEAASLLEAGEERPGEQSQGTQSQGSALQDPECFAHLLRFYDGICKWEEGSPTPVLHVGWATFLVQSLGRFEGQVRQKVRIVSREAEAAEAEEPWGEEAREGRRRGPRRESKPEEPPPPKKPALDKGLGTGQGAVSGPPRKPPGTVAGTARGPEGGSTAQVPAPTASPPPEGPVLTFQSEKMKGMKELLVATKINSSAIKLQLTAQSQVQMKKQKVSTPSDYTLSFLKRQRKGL
Assay: qHTS Assay for Inhibitors Targeting the Menin-MLL Interaction in MLL Related Leukemias: Competition With Texas Red Labeled MLL-derived Mutant Peptide; on FP activity change, negative = inhibition: % of control where 0% means no effect
Conditions: fluorescence polarization; FP activity change, negative = inhibition: at 61.6 µM (top of the series)
Potency means the concentration at half of the fitted maximal effect; tags describe the fitted curve by direction and shape or compound fluorescence and quenching.

Row | Compound | Potency | FP activity change, negative = inhibition
1 | CC1=C2C(CCS2(=O)=O)CC2(C1)C(=O)OC(C)(C)OC2=O (stereo not drawn) | inactive | 
2 | COc1ccc(S(=O)(=O)N(CCO)c2ccccc2CN(C)CC=Cc2ccc(Cl)cc2)cc1 | inactive | 
3 | CC(=O)Nc1ccc(Cc2ccncc2)cc1 | inactive | 
4 | COc1cccc(Nc2ncc3nc(-c4ccc(F)cc4)c(=O)n(CCC#N)c3n2)c1 | inconclusive: 7.94 µM [quencher, side channel, partial curve] | 
5 | Cc1ccccc1NC(=O)c1cccc(S(=O)(=O)Oc2ccc([N+](=O)[O-])cc2)c1 | inconclusive: 12.6 µM [quencher, side channel, partial curve] | 
6 | COc1ccc([N+](=O)[O-])cc1NC(=S)NC(NC(=O)C(c1ccccc1)c1ccccc1)C(Cl)(Cl)Cl (stereo not drawn) | inconclusive: 10 µM [quencher, side channel, partial curve] | 
7 | CC1Cc2ccccc2N1Cc1nc2cc(Cl)ccc2c(=O)[nH]1 (stereo not drawn) | inconclusive: 22.4 µM [quencher, side channel, partial curve] | 
8 | O=C(Nc1scc(-c2ccccc2)c1C(=O)O)c1ccccc1Cl | inconclusive: 28.2 µM [quencher, single point] | 
9 | CCOC(=O)c1ccc(NC(=O)/C=C/c2cccs2)cc1 | inconclusive: 14.1 µM [quencher, side channel, partial curve] | 
10 | COC(=O)c1ccc(NC(=O)c2cccc(OC)c2)cc1 | inconclusive: 28.2 µM [quencher, side channel, partial curve] | 
11 | CC(=O)N(CCN1CCOCC1)Cc1cc2cc3c(cc2nc1Cl)OCO3 | inconclusive: 10 µM [fluorescent, side channel, partial curve, poor fit] | 
12 | CCOc1ccc(-n2c(SCC(=O)Nc3ccc(C(=O)O)cc3)nc3ccccc3c2=O)cc1 | inconclusive: 17.8 µM [quencher, side channel, single point] | 
13 | CN1CCN(c2ccc(S(=O)(=O)N3CCCCC3)cc2NC(=O)Cc2ccc(Cl)cc2)CC1 | inconclusive: 17.8 µM [fluorescent, side channel, single point] | 
14 | Cc1ccc2nc(N(CCCN(C)C)C(=O)c3ccc(S(=O)(=O)N4CCCCCC4)cc3)sc2c1 | inconclusive: 12.6 µM [fluorescent, side channel, partial curve] | 
15 | COC(=O)C1=C(N)c2ccccc2C1(C#N)c1ccccc1 (stereo not drawn) | inconclusive: 20 µM [quencher, side channel, single point] | 
16 | O=C(OC1CCN(c2ncc(C(F)(F)F)cc2Cl)CC1)c1ccc(Cl)cc1 | inconclusive: 39.8 µM [inhibitor, single point] | 
17 | COc1ccc(C(=O)N/N=C/c2ccc(OC(=O)c3ccccc3)cc2)cc1 | inconclusive: 15.8 µM [inhibitor, partial curve] | 
18 | Cc1cc(C)c(S(=O)(=O)c2ccccc2)c(OC(=O)c2c(F)cccc2F)n1 | inactive | 
19 | Cc1cccc(NC(=O)c2ccc(NCCc3ccccc3)c([N+](=O)[O-])c2)c1 | inactive | 
20 | COc1ccc(NC(=O)c2cccc(C(=O)Nc3ccc(OC)cc3)n2)cc1 | inconclusive: 22.4 µM [fluorescent, side channel, partial curve] | 

Row | Compound | Potency | FP activity change, negative = inhibition
21 | CCc1nnc(NS(=O)(=O)c2ccc(NC(=O)c3cc(Cl)ccc3[N+](=O)[O-])cc2)s1 | inconclusive: 31.6 µM [quencher, side channel, single point] | 
22 | Cc1ccc(C(=O)COC(=O)c2ccncc2)cc1[N+](=O)[O-] | inconclusive: 25.1 µM [quencher, side channel, single point] | 
23 | Fc1cccc2sc(Nc3nc4c(F)cccc4s3)nc12 | inconclusive: 10 µM [quencher, side channel, partial curve] | 
24 | COc1ccccc1NC(=S)NC(=O)/C=C/c1cccs1 | inconclusive: 17.8 µM [quencher, side channel, partial curve] | 
25 | Nc1c(S(=O)(=O)O)cc(NC(=O)c2ccccc2)c2c1C(=O)c1ccccc1C2=O | inconclusive: 14.1 µM [fluorescent, side channel, partial curve] | 
26 | CCOc1cccc(C(=O)c2ccc(O)c(O)c2O)c1 | inconclusive: 17.8 µM [quencher, side channel, partial curve] | 
27 | O=C(Nc1ccc2c(c1)OCCO2)N1CCOCC1 | inconclusive: 11.2 µM [inhibitor, partial curve] | 
28 | COCCNS(=O)(=O)c1ccc2c(c1)C(=O)c1cc(S(=O)(=O)NCCOC)ccc1-2 | inconclusive: 39.8 µM [quencher, side channel, single point] | 
29 | Cc1nc(N)sc1-c1csc(Nc2cccc(O)c2)n1 | inconclusive: 22.4 µM [quencher, side channel, partial curve] | 
30 | O=c1c(/C=C(\O)c2ccc(F)cc2)nc2ccccc2n1-c1ccccc1 | inactive | 
31 | Cc1ccc(-n2cccn2)c(CN2CCCC(C(=O)c3ccc4c(c3)OCO4)C2)c1 (stereo not drawn) | inactive | 
32 | O=C(Nc1ccccc1)c1ccccc1NC(=O)[C@H]1CCCC[C@H]1C(=O)O | inactive | 
33 | Cc1nn(-c2ccccc2)c2c1C(c1ccc(O)c(O)c1)N1C(=N2)C(Nc2ccccc2)=Nc2ccccc21 (stereo not drawn) | inconclusive: 2.82 µM [quencher, side channel, full curve] | 
34 | Cc1cccc(OCCCC(=O)Nc2ccc(S(=O)(=O)Nc3nccs3)cc2)c1C | inconclusive: 10 µM [quencher, side channel, partial curve] | 
35 | N#Cc1ccc(-c2ccc(F)cc2)nc1Oc1ccccc1 | inconclusive: 39.8 µM [fluorescent, single point] | 
36 | COc1ccc(NC(=O)c2ccc(-n3cccn3)c([N+](=O)[O-])c2)cc1 | inconclusive: 22.4 µM [quencher, side channel, partial curve] | 
37 | CCOc1ccc(/C=N/Nc2ccccn2)cc1 | inconclusive: 12.6 µM [quencher, side channel, partial curve] | 
38 | Cc1ccc(-n2nnnc2SCC(=O)Nc2ccccc2-c2ccccc2)cc1C | inconclusive: 39.8 µM [inhibitor, single point] | 
39 | Cc1ccc(OCC(=O)c2ccc(Cl)s2)c([N+](=O)[O-])n1 | inconclusive: 28.2 µM [quencher, side channel, partial curve] | 
40 | COCCCNC(=O)COc1ccc2oc3c(c2c1)CCCC3 | inconclusive: 10 µM [inhibitor, partial curve] | 

Row | Compound | Potency | FP activity change, negative = inhibition
41 | O=S1(=O)Cc2cc3ccccc3cc2C1 | inconclusive: 39.8 µM [inhibitor, single point] | 
42 | O=c1cc(Cl)[nH]c(=O)n1Cc1ccccc1 | inactive | 
43 | COc1ccc(CNc2ncnc3ccc(-c4ccc(N(C)C)cc4)cc23)c(OC)c1 | inconclusive: 25.1 µM [inhibitor, partial curve] | 
44 | CC(=O)Nc1cccc(NC(=O)c2ccccc2OCc2ccccc2)c1 | inconclusive: 15.8 µM [fluorescent, side channel, single point] | 
45 | COc1cc2c(cc1NC(=S)NC(=O)/C=C/c1ccco1)oc1ccccc12 | inconclusive: 5.01 µM [quencher, side channel, full curve, poor fit] | 
46 | O=c1cc(-c2ccc(O)cc2)oc2cc(O)cc(O)c12 | inactive | 
47 | CC(C(=O)NCCSCc1cccc(Cl)c1)N(c1ccccc1)S(C)(=O)=O (stereo not drawn) | inconclusive: 3.16 µM [inhibitor, partial curve] | 
48 | O=C(Cn1c2ccccc2c(=O)c2cc([N+](=O)[O-])ccc21)Nc1ccccc1Cl | inconclusive: 10 µM [quencher, side channel, partial curve] | 
49 | CC(=O)n1cc(/C=N/NC(=O)c2ccc([N+](=O)[O-])cc2)c2ccccc21 | inconclusive: 20 µM [quencher, side channel, partial curve] | 
50 | O=C(O)c1ccc(-c2c3nc(c(-c4ccc(C(=O)O)cc4)c4ccc([n-]4)c(-c4ccc(C(=O)O)cc4)c4nc(c(-c5ccc(C(=O)O)cc5)c5ccc2[n-]5)C=C4)C=C3)cc1.[Mn+3] | inactive and inconclusive: 35.5 µM [quencher, side channel, single point] | 
51 | N#C/C(=N\Nc1ccc(Cl)cc1)C(=N)N1CCCCC1 | inconclusive: 7.94 µM [quencher, side channel, partial curve] | 
52 | COc1ccccc1NC(=O)CSc1c2c(nc3ccccc13)CCC2 | inactive | 
53 | CCc1ccc(N2CC(C(=O)Nc3ccc(S(=O)(=O)N4CCCCC4)cc3)CC2=O)cc1 (stereo not drawn) | inactive | 
54 | O=C(Nn1c(SCc2cccc([N+](=O)[O-])c2)nc2ccccc2c1=O)c1ccccc1 | inconclusive: 22.4 µM [quencher, side channel, single point] | 
55 | COc1ccc(OCC(=O)N2N=C(C)CC2(O)C(F)(F)F)cc1 (stereo not drawn) | inconclusive: 22.4 µM [inhibitor, single point] | 
56 | O=C1CC(C(=O)N(CC2CCCO2)C(C(=O)NC2CCCCC2)c2ccncc2)CS1 (stereo not drawn) | inconclusive: 8.91 µM [inhibitor, full curve, poor fit] | 
57 | CCOC(=O)OCC1OC(c2ccc(C(C)=O)cc2)C=CC1OC(=O)OCC (stereo not drawn) |  | inactive: 0.235% [at 11.7 µM]
58 | CCCCN(C)C(=O)CCC(=O)Nc1ccc2nc(N3CCOCC3)cc(C)c2c1 | inconclusive: 11.2 µM [inhibitor, partial curve, poor fit] | 
